The name of at least one read-out is uncertain.
Experiments:
Penicillium = assay: Control of seed- and soil-borne pathogens during storage of corn seeds (Table IV), mycelial growth of Penicillium; type: cell-based; conditions: 14 days
Rhizopus = assay: Control of seed- and soil-borne pathogens during storage of corn seeds (Table IV), mycelial growth of Rhizopus; type: cell-based; conditions: 7 days

| SMILES | Average Mycelial Growth Penicillium (Penicillium; 1.0 Oz./100 Lbs.) | Average Mycelial Growth Penicillium (Penicillium; 2.5 Oz./100 Lbs.) | Average Mycelial Growth Penicillium (Penicillium; 6.4 Oz./100 Lbs.) | Average Mycelial Growth Penicillium (Penicillium; 16 Oz./100 Lbs.) | Average Mycelial Growth Rhizopus (Rhizopus; 1.0 Oz./100 Lbs.) | Average Mycelial Growth Rhizopus (Rhizopus; 2.5 Oz./100 Lbs.) | Average Mycelial Growth Rhizopus (Rhizopus; 6.4 Oz./100 Lbs.) | Average Mycelial Growth Rhizopus (Rhizopus; 16 Oz./100 Lbs.) | Average Mycelial Growth Penicillium (Penicillium; 18 Oz./100 Lbs.) | Average Mycelial Growth Rhizopus (Rhizopus; 18 Oz./100 Lbs.) |
| --- | --- | --- | --- | --- | --- | --- | --- | --- | --- | --- |
| CCC(=O)OC(C)OC(=O)CC [Ethylidene Bispropionate] | 5.7 mm | 5.6 mm | 5.4 mm | 1.05 mm | 11.5 mm | 11.4 mm | 6.7 mm | 2.3 mm | – | – |
| CCC(=O)OC(OC(=O)CC)C(Cl)(Cl)Cl [2,2,2-Trichloroethylidene Bispropionate] | 4.4 mm | 4.5 mm | 4.1 mm | – | 19.3 mm | 5.3 mm | 5.2 mm | – | 2.6 mm | 1.3 mm |
| CC(C)C(=O)OCOCOC(=O)C(C)C [Oxybismethylene Bisisobutyrate] | 9.7 mm | 4.8 mm | 0 mm | 0 mm | 0 mm | 0 mm | 0 mm | 0 mm | – | – |
| CCC(=O)OCOC(=O)CC [Methylene Bispropionate] | 0.32 mm | 0 mm | 0 mm | 0 mm | 0 mm | 0 mm | 0 mm | 0 mm | – | – |
| CCC(=O)O [Propionic acid, reference compound] | 3.8 mm | 1.9 mm | 0 mm | 0.42 mm | 11.1 mm | 3.4 mm | 0.4 mm | 0 mm | – | – |
| CC(=O)OC(C)OC(C)=O [Ethylidene Bisacetate] | 0.1 mm | 0 mm | 0 mm | 0 mm | 10.0 mm | 4.3 mm | 2.6 mm | 0 mm | – | – |
| CC(C)C(=O)OCOC(=O)C(C)C [Methylene Bisisobutyrate] | 0.3 mm | 0 mm | 0 mm | 0.6 mm | 0.32 mm | 0.35 mm | 0 mm | 0 mm | – | – |
| CCC(=O)OC(OC(=O)CC)c1ccccc1 [Benzylidene Bispropionate] | 3.9 mm | 2.3 mm | 2.7 mm | 2.8 mm | 15.9 mm | 14.3 mm | 4.4 mm | 0.6 mm | – | – |
| CCCC(=O)OCOCOC(=O)CCC [Oxybismethylene Bisbutyrate] | 0 mm | 0 mm | 0 mm | 0 mm | 0 mm | 0 mm | 0 mm | 0 mm | – | – |

Source: patent publication US4123552A, “Compositions for preserving crops and animal feedstuffs” (Chevron Research Company, priority 1975, dated 1978)
